# Measured values reported in the supplement of paper PMC3334620.
# In all, about 33,000 sequences were measured (“E-score (-0.5 to 0.5)”: median about -0.012, highest 2% from about 0.27 on). The list shows a part of the results.
# Molecular target: T1, Vhr1 (UniProt P40522)
# T1 sequence: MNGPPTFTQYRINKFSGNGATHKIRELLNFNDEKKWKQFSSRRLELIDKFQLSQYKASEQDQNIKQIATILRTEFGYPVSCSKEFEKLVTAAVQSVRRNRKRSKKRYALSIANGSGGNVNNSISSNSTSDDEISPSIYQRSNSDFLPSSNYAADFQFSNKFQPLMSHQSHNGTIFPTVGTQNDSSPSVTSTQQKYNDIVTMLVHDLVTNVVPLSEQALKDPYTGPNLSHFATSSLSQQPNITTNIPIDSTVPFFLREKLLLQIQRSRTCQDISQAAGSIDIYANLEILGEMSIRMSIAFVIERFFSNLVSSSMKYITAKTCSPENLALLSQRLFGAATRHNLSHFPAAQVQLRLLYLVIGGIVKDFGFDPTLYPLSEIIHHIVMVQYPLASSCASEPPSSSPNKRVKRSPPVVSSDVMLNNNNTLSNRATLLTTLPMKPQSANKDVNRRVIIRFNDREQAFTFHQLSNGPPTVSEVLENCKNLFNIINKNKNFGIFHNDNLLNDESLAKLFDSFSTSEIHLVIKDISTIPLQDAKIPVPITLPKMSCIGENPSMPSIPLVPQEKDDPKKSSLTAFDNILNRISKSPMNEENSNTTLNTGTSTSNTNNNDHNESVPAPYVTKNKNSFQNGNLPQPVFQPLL
# Test: PBM E-score (8-mer binding enrichment) (E-score (-0.5 to 0.5)); higher = stronger / more preferred TF binding; most listed sequences are background and not binding sites
# Settings: protein concentration: 200 nM; construct: GST-full length
# Procedure, shortened: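 Yeast transcription factors, full-length or as DNA-binding domains, were expressed with a GST tag using PURExpress in vitro transcription/translation. At about 100-200 nM they were applied to universal all-10-mer Agilent arrays, double-stranded by primer extension on fresh or once-stripped slides. Fluorescent anti-GST detected bound protein, and masliner normalised the scans. E-scores for ungapped eight-base words, pooled with reverse complements, came from the Universal PBM Analysis Suite.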
row,Sequence,PBM E-score
1,AACGCGTG,-0.0141
2,CTTCCTCC,-0.247
3,AGGTTCAG,-0.0158
4,CTTAAAAA,-0.231
5,AAGTCACC,0.301
6,CTAAGCTA,-0.0723
7,ACTGCTCC,0.0624
8,AGTCGGGC,0.145
9,GGAGCTGA,0.00933
10,CGCGCCGC,0.177
11,CATGGACG,0.0438
12,CTGTGCCA,-0.0519
13,CGCTCCCG,-0.0474
14,ACCAACCC,0.0128
15,ACGTCGGA,-0.0862
16,ACAGCTGA,0.0324
17,AGAATTAT,0.0241
18,ACCGTGCT,-0.11
19,GGACCGCC,-0.14
20,CGCTCGAC,-0.167
21,TCGGATCA,0.0704
22,CTCCTGAC,0.142
23,CAGGTATG,0.205
24,AGTATTGG,0.1
25,CAGTAAGG,-0.259

row,Sequence,PBM E-score
1,CTTAGCGC,0.128
2,AAACGAAT,-0.044
3,AGAACGAC,0.00162
4,AAAGTCAC,0.246
5,CCACATAG,0.102
6,TCACTACA,0.141
7,CCCCCTAA,-0.331
8,AAAAAGCA,-0.147
9,GAGTTCAC,0.0628
10,TACCAATA,0.171
11,AAAGGATG,0.0615
12,CTGCTAAA,-0.251
13,GCGGGACA,0.0204
14,AGTTACAT,-0.043
15,CGTGGCGC,-0.0549
16,AGCGTCTG,-0.0399
17,ACCCTTAG,0.00115
18,TATTCAGA,0.178
19,ATCGTTCC,-0.169
20,AAACGTAA,-0.0983
21,ATATCACA,-0.0613
22,AGATGGTA,0.0225
23,CAAGGGAC,-0.219
24,CACGGGTA,0.0278
25,ACCTAGGG,-0.129

row,Sequence,PBM E-score
1,CTTTCGAA,-0.312
2,ATAGGTAC,0.0378
3,AGACCATG,0.188
4,GTTAGAGA,-0.136
5,AATTCCCA,-0.294
6,CTCTACTC,-0.0973
7,AAACTAGA,-0.127
8,AGAACTTA,-0.226
9,CAGCCAAG,-0.0618
10,AACTGGGG,-0.0107
11,ATGTAACG,0.012
12,AAAGACAC,0.0487
13,ATACTACC,0.0318
14,CCCTTTCG,-0.113
15,AACTTCAC,-0.164
16,AGGCTAGC,-0.175
17,AGTTCTAG,-0.127
18,AGTCATAG,0.407
19,TAAGAGAA,-0.285
20,TGAACACA,0.0277
21,GATGGCTA,0.166
22,CGAACAAC,0.00816
23,ATAATACA,0.277
24,CGTCAGCC,0.044
25,GATGAACC,0.215

row,Sequence,PBM E-score
1,ATAGTCCG,-0.0873
2,GATGGGCC,-0.117
3,AGAGAGGA,-0.0961
4,ATTTCTGC,-0.0589
5,CTTAAGCA,-0.134
6,GCCGTACA,0.064
7,CCCGCATA,0.208
8,AAAGAGTT,-0.125
9,AAACAACC,-0.0239
10,GTTAGAAA,-0.161
11,CCGCCAAC,0.163
12,GTGAGAAA,-0.189
13,CCACGGGG,0.105
14,ACCGGTAA,-0.011
15,GTGTCGTA,0.257
16,GAGGAGGA,-0.0769
17,CCCTGCCG,-0.0838
18,AATTATTG,-0.0419
19,CTCTCAGA,-0.297
20,ACTCGTGG,0.124
21,CAGATAAC,0.132
22,ACCGTTAG,-0.144
23,AGCCAATG,0.117
24,AATATGAC,0.265
25,CCTATTAA,-0.142

row,Sequence,PBM E-score
1,CGGACAGA,-0.0387
2,GTGCGTCA,-0.0481
3,CAACTAGC,0.131
4,CTTTTAAC,-0.314
5,GTGCCGTA,0.0336
6,GGTACGCA,0.101
7,TAGATTCA,-0.0459
8,CCCGGACA,0.00629
9,ATCCAGCC,0.00924
10,CTTATGTA,-0.0772
11,TAACGTAA,-0.0343
12,ACACGCGA,0.131
13,AGACTGAA,-0.0932
14,CCCGTTCG,-0.0578
15,ACCTCCAT,0.0255
16,AACTTGGT,0.0366
17,AAAGTCCG,-0.264
18,ACGCCTAG,-0.22
19,AAACGGTT,-0.184
20,CGGGTCAC,0.185
21,CGTATCAG,0.103
22,AGAATCGA,-0.13
23,CACGAGAC,0.175
24,CCGAACTA,0.0691
25,ATTCAGAG,0.118

row,Sequence,PBM E-score
1,GTCGGTCA,-0.0541
2,CCGGTAGC,-0.00183
3,CTCAGTTA,-0.0388
4,CGAAGAAC,0.0807
5,AGTCTCTA,0.0197
6,AATTAGTA,0.146
7,GTGCGAGA,0.138
8,CGGTCGAG,-0.00746
9,CTCTCTCC,-0.0621
10,TGATGAAA,-0.112
11,GCAGGAAA,-0.0422
12,ACACCTCG,-0.0149
13,GAGGACGA,0.104
14,ATTGCACG,0.159
15,CTCCCTGC,-0.0434
16,ATAAGCAA,-0.0687
17,TGAGTACA,0.245
18,AAGGCACT,-0.122
19,TGAGACAA,-0.141
20,ATGCGGTG,0.119
21,CCTTGAAA,-0.246
22,GAACCATA,0.215
23,CTCATTAA,-0.0654
24,TCATTGGA,0.0126
25,CCCTATGA,0.00492

row,Sequence,PBM E-score
1,CCATTGCG,-0.0348
2,AGGGGTCG,-0.0826
3,CTGCTGAA,-0.0748
4,CTGTCGTC,-0.0585
5,GACCAGCC,0.0698
6,AGCAGCAC,-0.0532
7,TACAACTA,0.115
8,ATGAAACA,-0.0183
9,AGAGTAAG,-0.0559
10,CCGTGCAA,0.028
11,GGATGACC,0.0126
12,AACACTAT,0.136
13,AGTGTCAC,0.175
14,GCTTTATA,-0.261
15,GCAATAAC,0.0283
16,GACCGACA,0.00884
17,ATAGTATA,0.236
18,AATAGGAC,-0.0932
19,AATCGTAC,0.181
20,CAGTCAGC,0.232
21,CTTCAAAA,-0.234
22,AAAATGGA,0.0297
